Data as given in PubChem BioAssay AID1347417 (National Center for Advancing Translational Sciences (NCATS), 2020).
Screen size: about 120,000 compounds; about 5,300 (4.4%) were called active. The inconclusive results got no clear call from the source; some entries with a clear call stand among them for comparison. Calls come from the whole dose curve; as a rule, active = well fitted inhibition curve with a large enough effect; inconclusive = small, poorly fitted or top-dose-only effect; inactive = no such curve, though single readings can be large or run the other way. Potencies beside an inconclusive call are fits to weak or partial responses and may not hold up.

test: qHTS Primary assay for Inhibitors of Plasmodium falciparum Dd2 growth in vitro; note: nearly all actives have a fitted effect of over 65% in size;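 for activity, negative = inhibition: plate controls were DMSO vehicle for no effect and reference drug for full effect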; details: P. falciparum Dd2 growth, SYBR Green, 72 h; activity, negative = inhibition: at 28.9 µM (top of the series) unless noted; series mostly up to 28.9 µM
Procedure, shortened: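 Infected erythrocytes (Dd2, 0.3% parasitemia, 2.5% hematocrit final) are added to compound in RPMI-1640/Albumax II medium, grown 72 h at 37C in low oxygen, then lysed with saponin/Triton-X containing SYBR Green and read by fluorescence.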
Potency is the fitted concentration of half-maximal effect; tags give direction and shape of the fitted curve.

| SMILES | Potency | activity, negative = inhibition |
| --- | --- | --- |
| Cc1ccc(C(=O)NC[C@@H]2CC[C@H]3C[C@@H]2C3(C)C)cc1 | inconclusive: 20 µM [inhibitor, single point] | – |
| COC1CCN(C(=O)c2ccnc(-c3nnc4ccc(N(C)C)nn34)c2)CC1 | inactive | – |
| C[C@@H](NS(=O)(=O)c1ccccc1)c1onc(-c2ccc(Cl)cc2)c1C(=O)O | inactive | – |
| O=C(Nc1ccc(F)cc1)c1ccc2cc[nH]c2n1 | inconclusive: 11.2 µM [inhibitor, partial curve] | – |
| CCOC(=O)C1CCN(C(=O)c2cc3ccc4ccc(C)[nH]c4c3n2)CC1 | inconclusive: 12.6 µM [inhibitor, single point] | – |
| CCc1ccc(S(=O)(=O)N2CCCC(CNC(=O)c3ccccc3Cl)C2)cc1 (stereo unspecified) | inactive | – |
| CN1C(=O)CC[C@]2(C(=O)NC3CC3)CCCC[C@@H]12 | inactive | – |
| Cn1nc(C(=O)N2CCCn3nc(CO)cc3C2)c2ccccc2c1=O | inactive | – |
| COc1cccc(CN2CCCC3(CCN(Cc4ccccc4)C3)C2=O)c1OC (stereo unspecified) | inconclusive: 5.01 µM [inhibitor, single point] | – |
| CC(C)(C)C(=O)N1CCC2(CCCN(Cc3cccc(F)c3F)C2=O)C1 (stereo unspecified) | inactive | – |
| Cc1ccc(-n2ncc(C(=O)NCCCN3CCc4ccccc4C3)c2C2CCN(C(=O)OC(C)(C)C)CC2)cc1C | inconclusive: 1 µM [inhibitor, single point] | – |
| O=c1c2c3c(nn2ccn1Cc1ccc(Cl)cc1)CCCC3 | inconclusive: 17.8 µM [inhibitor, single point] | – |
| Cc1nc2c(-c3ccccc3)c(C)[nH]n2c(=O)c1Cc1ccc(C(C)C)cc1 | inconclusive: 17.8 µM [inhibitor, single point] | – |
| CCS(=O)(=O)c1ncc(N(Cc2cccc(F)c2)Cc2ccco2)c(C(=O)Nc2ccccc2Cl)n1 | inconclusive: 11.2 µM [inhibitor, partial curve, poor fit] | – |
| CCC1CN(C(=O)N2CCC(C(=O)N(C)Cc3ccccc3)CC2)c2ccccc2O1 (stereo unspecified) | inconclusive: 11.2 µM [inhibitor, single point] | – |
| Cc1cn2nc(C(=O)Nc3ccc(Cl)c(C)c3)cc2c(N2CCSCC2)n1 | inconclusive: 1 µM [inhibitor, partial curve, poor fit] | – |
| O=C(NC[C@H]1Cn2c(-c3ccc4c(c3)OCO4)cnc2CO1)Nc1ccc(F)cc1 | inconclusive: 3.55 µM [inhibitor, partial curve, poor fit] | – |
| COc1ccc(-c2cc([C@H]3CN4CC[C@H]3C[C@@H]4CNC(=O)c3ccccc3)n(C)n2)cc1OC | active: 11.2 µM | – |
| Cc1ccc([C@H]2C[C@@H](O)[C@@H](O)[C@@H]2NC(=O)c2ccccn2)cc1 | inactive | – |
| CC(=O)Nc1ccc(S(=O)(=O)N[C@H]2CO[C@H]3[C@@H]2OC[C@@H]3Nc2nccc(C(C)(C)C)n2)cc1 | inactive | – |
| CN(C)CC(=O)N1Cc2ccccc2CC2(CCN(Cc3ccccc3)C2)C1 (stereo unspecified) | inconclusive: 5.01 µM [inhibitor, partial curve, poor fit] | – |
| CC(C)NC(=O)NC[C@H]1OC[C@@H](NC2CCNCC2)[C@@H]1O | inactive | – |

| SMILES | Potency | activity, negative = inhibition |
| --- | --- | --- |
| Cc1ocnc1C(=O)N1CC[C@@H]2[C@@H](CCC(=O)N2CCc2cnc[nH]2)C1 | inactive | – |
| COCCNC(=O)[C@@H]1C[C@@H](O)CN1C1CCN(C(=O)Cc2ccccc2)CC1 | inconclusive: 1.58 µM [inhibitor, full curve] | – |
| CC(=O)N1c2ccccc2C(=O)C1N1CCN(c2cc(Cl)ccc2C)CC1 (stereo unspecified) | inconclusive: 17.8 µM [inhibitor, single point] | – |
| CC1=C[C@@H](CNS(=O)(=O)c2cccc(F)c2)[C@H](C(C)C)C[C@H]1CC(=O)O | inconclusive: 31.6 µM [inhibitor, single point] | – |
| O=C(CSCc1cc(=O)c2ccccc2[nH]1)Nc1cccc(C(F)(F)F)c1 | inconclusive: 15.8 µM [inhibitor, single point] | – |
| CC(=O)c1ccc(N2CCN(S(=O)(=O)c3ccc4[nH]c5c(c4c3)CCCCC5)CC2)cc1 | inactive | – |
| Cc1cccc(NC(=O)N2CC(Oc3ccccc3-c3noc(C)n3)C2)c1 | inconclusive: 17.8 µM [inhibitor, single point] | – |
| O=C(Nc1ccc(Br)cc1)c1cccc(S(=O)(=O)N2CCc3ccccc32)c1 | inconclusive: 10 µM [inhibitor, single point] | – |
| CC(C)CN1C(=O)c2cccn2CC1CNC(=O)c1cccs1 (stereo unspecified) | inactive | – |
| COCC1CN(C(C)=O)CC12CCN(Cc1ccc(F)cc1)CC2 (stereo unspecified) | inactive | – |
| Cc1cnc(CC2CCCN(C(=O)NCC(C)C)C2)n1Cc1ccc(F)cc1 (stereo unspecified) | inconclusive: 3.98 µM [inhibitor, single point] | – |
| COc1ccc(CN2CCc3oc(C)c(C(=O)N4CCN(c5ncccn5)CC4)c3C2)cc1 | inconclusive: 2.51 µM [inhibitor, full curve] | – |
| Cn1nccc1-c1ccc2ncn(Cc3ccccn3)c(=O)c2n1 | inactive | – |
| CCOc1ccc(NC(=O)c2oc3ccccc3c2NC(=O)c2cc3ccccc3o2)cc1 | inactive | – |
| Cc1ccc(/C=C/c2onc(C)c2S(=O)(=O)N2CCC(C(=O)N(CCC(C)C)Cc3ccco3)CC2)cc1 | inconclusive: 11.2 µM [inhibitor, single point] | – |
| C=C[C@H]1CN2CC[C@H]1C[C@@H]2CNC(=O)Nc1cc(OC)cc(OC)c1 | inconclusive: 4.47 µM [inhibitor, partial curve] | – |
| CC(C)c1ccc(NC(=O)CSC2=Nc3ccccc3C3=NC(CC(=O)NC4CCCCC4)C(=O)N23)cc1 (stereo unspecified) | inactive | – |
| Cc1noc(C2CC3(CCN(C(=O)c4ccccn4)CC3)CN2C)n1 (stereo unspecified) | inactive | – |
| Cc1ccccc1CC(=O)N1CCC(n2cc(-c3nc(-c4ccccc4)no3)nn2)CC1 | inconclusive: 2.24 µM [inhibitor, partial curve] | – |
| COc1cccc(-c2cc(-c3ccc(OC)nc3)c3cncn3c2)c1 | inconclusive: 5.62 µM [inhibitor, single point] | – |
| COc1ccccc1-n1c(=O)n(C)c2c(C(N)=O)nc(-c3cc(OC)c(OC)c(OC)c3)nc21 | inconclusive: 17.8 µM [inhibitor, single point] | – |
| O=C1c2c(nc(CNc3cccc(F)c3)n2Cc2ccccc2)NCCN1CCN1CCCCC1 | inconclusive: 1 µM [inhibitor, partial curve, poor fit] | – |

| SMILES | Potency | activity, negative = inhibition |
| --- | --- | --- |
| Cn1ncc2c(N[C@@H](Cc3ccccc3)C(N)=O)nc(-c3ccncc3)nc21 | inconclusive: 2 µM [inhibitor, partial curve, poor fit] | – |
| COCCN1C(=O)CS(=O)(=O)C12CCN(C(=O)c1ccc(F)c(F)c1)CC2 | inconclusive: 8.91 µM [inhibitor, partial curve] | – |
| CC(=O)N1CCOC2(CCN(C(=O)c3ccc(Cl)cc3)CC2)C1 | inactive | – |
| CNC(=O)[C@@H]1C[C@H](Oc2ccccc2)CN1C(=O)Nc1ccccc1 | inactive | – |
| O=C(Nc1ccc(F)cc1F)N1CCC2(CC1)SCC(=O)N2c1ccc(F)cc1 | inactive | – |
| CCn1cc2nc(SCc3cccc(C(F)(F)F)c3)n(Cc3ccc(C)cc3)c(=O)c2n1 | active: 10 µM | – |
| CC1CCc2sc(C(=O)N(C)Cc3cc(-c4ccncc4)no3)cc2C1 (stereo unspecified) | inactive | – |
| CCOC(=O)c1sc(N2C(=O)c3oc4ccc(F)cc4c(=O)c3C2c2ccc(O)cc2)nc1C (stereo unspecified) | – | inconclusive: -180% [inhibitor] [at 5.79 µM] |
| CCC(C)c1ccc(OCC(=O)Nc2ccc(-c3nc4ncccc4o3)cc2)cc1 (stereo unspecified) | active: 10 µM | – |
| COc1nc2c(cc1CNC(=O)C1C(C)(C)C1(C)C)C(=O)N(C1CCCC1)C2 | inconclusive: 14.1 µM [inhibitor, single point] | – |
| CCOC(=O)c1ccc(NC(=O)c2c(NCc3cccc(OC)c3OC)sc3c2CCC3)cc1 | inconclusive: 11.2 µM [inhibitor, single point] | – |
| Cc1nc(-c2cn(C3CCCN(C(=O)c4ccc(C#N)cc4)C3)nn2)no1 (stereo unspecified) | inconclusive: 4.47 µM [inhibitor, partial curve, poor fit] | – |
| CCN1c2cc(C(=O)NCc3ccc(OC)cc3OC)ccc2C(=O)N2CCCCCC21 (stereo unspecified) | active: 4.47 µM | – |
| O=S(=O)(c1cccnc1)N1CCC2(CC1)NCCc1c2[nH]c2ccccc12 | inconclusive: 0.355 µM [inhibitor, full curve, poor fit] | – |
| Cc1cc(COc2ccccc2)oc1C(=O)N1CCn2nc(C(C)O)cc2C1 (stereo unspecified) | inactive | – |
| CCC1CN(C(=O)Nc2cc(Cl)ccc2C(=O)OC)c2ccccc2S1 (stereo unspecified) | – | inconclusive: -154% [inhibitor] [at 0.594 µM] |
| Cc1cccc(OCC(=O)c2ccc3c(c2)N(C(C)C(=O)N2CCOCC2)C(=O)CO3)c1C (stereo unspecified) | inconclusive: 2 µM [inhibitor, full curve] | – |
| c1cncc(CNC[C@H]2Cn3c(-c4ccc5c(c4)OCCO5)cnc3CO2)c1 | inconclusive: 4.47 µM [inhibitor, partial curve, poor fit] | – |
| CC1=C[C@@H](CN(C)CCO)[C@H](C(C)C)C[C@H]1Cc1nnc(-c2ccccc2F)o1 | active: 12.6 µM | – |
| Cc1ccc(C)c(Cn2c(=O)n(CCCC(=O)NCc3ccc4c(c3)OCO4)c(=O)c3sccc32)c1 | inconclusive: 11.2 µM [inhibitor, single point] | – |
| COCCN1C(=O)c2cccn2CC1CNC(=O)c1ccc(F)cc1 (stereo unspecified) | inconclusive: 0.316 µM [inhibitor, partial curve, poor fit] | – |
| CC(C)NC(=O)C[C@@H]1c2nc(NC(=O)c3ccc(C(C)(C)C)cc3)sc2C[C@@H]2[C@](C)(CO)[C@H](O)CC[C@]21C | inconclusive: 1.78 µM [inhibitor, partial curve, poor fit] | – |
